How the values were obtained:
[1] = tested on: biotinylated human pro-myostatin; experiment: Biacore 8k SPR binding affinity, human pro-myostatin
Source text: (§1) The Biacore™ 8 k SPR system was utilized to evaluate the binding affinity of myostatin antibodies to biotinylated human, murine, and cyno pro-myostatin. Biotin CAPture kit and sensor chips (Cytiva) were utilized in these experiments to immobilize the various antigens, followed by flowing a range of concentrations of each of the test antibodies.

[2] = tested on: biotinylated murine pro-myostatin; experiment: Biacore 8k SPR binding affinity, murine pro-myostatin; parameters: species or system mouse
Source text: as §1

human pro-myostatin = experiment: SEC-MALS binding stoichiometry
Description: A combination of size exclusion chromatography and multi-angle light scattering (SEC-MALS) was used to determine the approximate mass and therefore the oligomeric state of the antibodies and their stoichiometry of binding to human promyostatin. The monoclonal antibody (mAb) or its Fab fragment was mixed with 50 μg of human pro-myostatin at a ratio of 1:1, 2:1 or 3:1 (antibody to antigen) for at least 24 hours at room temperature for immune complexes to form, filtered and injected into an analytical SEC column (Waters HPLC with a Superdex 200 10/300), flowed through a refractive index detector and then a miniDAWN® multi-angle light scattering detector to determine the mass. A full-length human-pro-myostatin with an N-terminal His6 tag (SEQ ID NO: 941) was used to express pro-myostatin in HEK cells. The signal peptide present in the construct is cleaved during biosynthesis. The resulting recombinant human pro myostatin was purified using the His6 tag (SEQ ID NO: 941) and used for the experiment.

[3] = tested on: dexamethasone-induced muscle atrophy in C57BL6 male mice; experiment: Dexamethasone-induced muscle atrophy mouse model; format: in vivo; settings: for body weight of dexamethasone treated mice: 3 mg/kg/day, FIG. 6A, FIG. 9A
Source text: To evaluate in vivo efficacy of the novel myostatin-selective inhibitors disclosed herein, the ability of the antibodies to preserve lean muscle mass was examined in a dexamethasone-induced atrophy mouse model. An excess of glucocorticoids directly stimulates myostatin production via interactions with a glucocorticoid response element in the myostatin promoter, thus inducing loss of muscle mass. As shown herein, antibodies of the disclosure prevented glucocorticoid-induced muscle atrophy.
C57BL6 male mice (n=8) at 13-14 weeks of age were given normal drinking water or water containing dexamethasone at a concentration of 2.5 mg/kg (17.5 grams dexamethasone per liter of drinking water) to induce atrophy. […] Body weight was measured daily. Body composition was measured by qNMR to determine lean mass pre-dosing, at day 7, and at day 14. After 14 days of dexamethasone exposure, the animals were terminated, and body weight and gastrocnemius weight were measured. Terminal blood for each animal was also collected.
C57BL6 male mice (n=8) at 13-14 weeks of age were given normal drinking water or water containing dexamethasone at a concentration of 2.5 mg/kg to induce atrophy. Mice were dosed at day 1 and day 7 with vehicle (PBS), IgG control (“hIgG”) or different doses of the test antibodies, as shown in Table 13. Muscle mass at days −1, 6 and 13 was measured using qNMR. At the end of the study (day 14), serum from each animal was collected and changes in body weight, body composition (qNMR), left and right gastrocnemius weight, and left and right quadriceps weight were measured. Statistical analysis was performed by ANOVA (Dunnett's multiple comparison test).
In a third experiment, antibody doses ranging from 0.3 mg/kg to 10 mg/kg were compared for their effectiveness in attenuating dexamethasone-induced atrophy. C57BL6 male mice (n=8) at 13-14 weeks of age were given normal drinking water or water containing dexamethasone at a concentration of 2.5 mg/kg to induce atrophy. Mice were dosed at day 1 and day 7 with vehicle (PBS), human IgG control (“hIgG”) or different doses of the test antibodies, as shown in Table 14 below. qNMR was used to measure muscle mass at days-1, 6 and 13. At day 14 the study ended, serum was collected and changes in body composition (qNMR), left and right gastrocnemius weight, and left and right quadriceps weight were determined. Circulating myostatin was measured in the serum of a terminal bleed taken at day 14. Statistical analysis was performed by ANOVA (Dunnett's multiple comparison test).
In a fourth experiment, antibodies Ab109 and Ab133 were compared to control human IgG and Ab2 in the same protocol as described above.

[4] = AC-SINS self-interaction (aggregation behavior); format: physicochemical; settings: cutoff shift >5 nm in plasmon wavelength
Description: The antibodies were tested for aggregation behavior by affinity capture self-interaction nanoparticle spectroscopy (AC-SINS). Gold nanoparticles were coated with polyclonal antibodies that are specific for human monoclonal antibodies and the monoclonal antibodies are captured by the conjugates. The polyvalency of the monoclonal antibody conjugates amplifies the attractive self-interactions, i.e., aggregation between the adsorbed antibodies. This leads to reduced inter-particle separation distances and is detected by a change in color of the gold colloid solution, which was quantified by a change in the wavelength of maximum absorbance (plasmon wavelength). Plasmon wavelength of 530 nm was used as the reported value for unaggregated gold nanoparticles. Antibodies with a tendency to self-aggregate shift the plasmon wavelength toward the red end of the spectrum. A shift of greater than 5 nm (i.e., >5 nm) in plasmon wavelength was used as the cutoff indicative of self-interacting antibodies.

total myostatin in serum = experiment: Circulating total myostatin in serum (acidification ELISA), dexamethasone model; format: in vivo, mouse; settings: as compared to apitegromab
Source text: Briefly, serum samples were acidified at low pH (e.g., pH ˜2.5) to dissociate the bound antibody from the immune complex and to convert all myostatin in the sample to the active form of growth factor (i.e., mature myostatin). Samples were then neutralized and assayed for the presence of mature myostatin on ELISA plates coated with anti-mature myostatin antibodies as capture reagents.

[5] = Fab fragment, input ratio Fab:pro-myostatin 2:1
[6] = Fab fragment, input ratio Fab:pro-myostatin 3:1
[7] = full-length mAb, input ratio mAb:pro-myostatin 1:1
[8] = full-length mAb, input ratio mAb:pro-myostatin 3:1
[9] = full-length mAb, input ratio mAb:pro-myostatin 1:1, peak 1
[10] = full-length mAb, input ratio mAb:pro-myostatin 1:1, peak 2

Row | Ka [1] [M⁻¹ s⁻¹] | Kd (1/s) [1] [s⁻¹] | Ka [2] [M⁻¹ s⁻¹] | Kd (1/s) [2] [s⁻¹] | Kd [2] [nM] | Molecule | SEC-MALS Result (human pro-myostatin; [5]) [kDa] | SEC-MALS Result (human pro-myostatin; [6]) [kDa] | SEC-MALS Result (human pro-myostatin; [7]) | SEC-MALS Result (human pro-myostatin; [8]) [kDa] | body weight of dexamethasone treated mice [3] | SEC-MALS Result (human pro-myostatin; [9]) [kDa] | SEC-MALS Result (human pro-myostatin; [10]) [kDa] | aggregation behavior by AC-SINS [4] | body weight loss in dexamethasone treated mice ([3]; doses 0.3-10 mg/kg on day 1 and day 7, dose as in the words, FIG. 7A, FIG. 10A) | lean mass by qNMR in dexamethasone treated mice ([3]; doses 0.3-10 mg/kg, dose as in the words, FIG. 7B, FIG. 10B) | accumulation of total or latent myostatin in serum samples from dosed subjects (total myostatin in serum) | prevention of muscle atrophy in dexamethasone treated mice ([3]; second experiment, Table 13)
1 | 1.38e+06 | 0.000543 | 1.25e+06 | 0.000772 | – | Ab123: anti-pro/latent myostatin antibody; CDRs in Tables 2d-f, variable domains Table 3, chains Table 4 (antibody) heavy: EVQLVESGGGLVQPGGSLRLSCAASGFTFSKYDMSWVRQAPGKGLELVASISSSGGTRYYPDSVKGRFTISRDNAKNSLYLQMNSLRAEDTAVYYCAKDLWVASPGYGMDVWGQGTTVTVSSASTKGPSVFPLAPCSRSTSESTAALGCLVKDYFPEPVTVSWNSGALTSGVHTFPAVLQSSGLYSLSSVVTVPSSSLGTKTYTCNVDHKPSNTKVDKRV[human IgG4 Fc with S228P (EU numbers) left out] light: DIVMTQSPLSLPVTPGEPASISCRSSQSLLHSSGHNYLHWYLQKPGQSPQLLIYLGSIRAPGVPDRFSGSGSGTDFTLKISRVEAEDVGVYYCMQALLNPPTFGGGTKVEIKRTVAAPSVFIFPPSDEQLKSGTASVVCLLNNFYPREAKVQWKVDNALQSGNSQESVTEQDSKDSTYSLSSTLTLSKADYEKHKVYACEVTHQGLSSPVTKSFNRGEC | 141.2 | 144.5 | 236.1 kDa | 237.5 | maintained the body weight of the dexamethasone treated mice to a greater extent than Ab2 | – | – | – | – | – | – | –
2 | 217000 | 0.000122 | 251000 | 0.000188 | – | Ab112: anti-pro/latent myostatin antibody; CDRs in Tables 2d-f, variable domains Table 3, chains Table 4 (antibody) heavy: QVQLVQSGAEVKKPGASVKVSCKVSGGTFGIYAIHWVRQAPGKGLEWMGGTIPVFGTAIYAQKFQGRVTMTEDTSTDTAYMELSSLKSEDTAVYYCASLTGIAAAGTHPARGGMDVWGQGTTVTVSSASTKGPSVFPLAPCSRSTSESTAALGCLVKDYFPEPVTVSWNSGALTSGVHTFPAVLQSSGLYSLSSVVTVPSSSLGTKTYTCNVDHKPSNTKVDKRV[human IgG4 Fc with S228P (EU numbers) left out] light: DIQMTQSPSSVSASVGDRVTITCRASPSISSYLAWYQQKPGKAPKLLIYAASRLQSGVPSRFSGSGSGTDFTLTISSLQPEDFANYYCQEYLSFPLTFGGGTKVEIKRTVAAPSVFIFPPSDEQLKSGTASVVCLLNNFYPREAKVQWKVDNALQSGNSQESVTEQDSKDSTYSLSSTLTLSKADYEKHKVYACEVTHQGLSSPVTKSFNRGEC | 176.9 | 180.9 | 2,519 kDa | 699.6 | – | – | – | – | – | – | – | less effective in preventing muscle-induced atrophy than Ab109 and Ab127

More lines, now with the values behind:

Row | Molecule | Ka [1] [M⁻¹ s⁻¹] | Kd (1/s) [1] [s⁻¹] | Ka [2] [M⁻¹ s⁻¹] | Kd (1/s) [2] [s⁻¹] | Kd [2] [nM] | SEC-MALS Result (human pro-myostatin; [5]) [kDa] | SEC-MALS Result (human pro-myostatin; [6]) [kDa] | SEC-MALS Result (human pro-myostatin; [7]) | SEC-MALS Result (human pro-myostatin; [8]) [kDa] | body weight of dexamethasone treated mice [3] | SEC-MALS Result (human pro-myostatin; [9]) [kDa] | SEC-MALS Result (human pro-myostatin; [10]) [kDa] | aggregation behavior by AC-SINS [4] | body weight loss in dexamethasone treated mice ([3]; doses 0.3-10 mg/kg on day 1 and day 7, dose as in the words, FIG. 7A, FIG. 10A) | lean mass by qNMR in dexamethasone treated mice ([3]; doses 0.3-10 mg/kg, dose as in the words, FIG. 7B, FIG. 10B) | accumulation of total or latent myostatin in serum samples from dosed subjects (total myostatin in serum) | prevention of muscle atrophy in dexamethasone treated mice ([3]; second experiment, Table 13)
3 | Ab133: anti-pro/latent myostatin antibody; CDRs in Tables 2d-f, variable domains Table 3, chains Table 4 (antibody) heavy: EVQLVESGGGLVQPGGSLRLSCAASGFTFSSYGMSWVRQAPGKGLELVASFTGSGGAYYPDSVKGRFTISRDNAKNSLYLQMNSLRAEDTAVYYCARDLLIRFLEWSHYYGMDVWGQGTTVTVSSASTKGPSVFPLAPCSRSTSESTAALGCLVKDYFPEPVTVSWNSGALTSGVHTFPAVLQSSGLYSLSSVVTVPSSSLGTKTYTCNVDHKPSNTKVDKRV[human IgG4 Fc with S228P (EU numbers) left out] light: DIVMTQSPLSLPVTPGEPASISCRSSQSLLHSSGHNFLHWYLQKPGQSPQLLIYEVSNRVSGVPDRFSGSGSGTDFTLKISRVEAEDVGVYYCQQQTQYPGTFGGGTKVEIKRTVAAPSVFIFPPSDEQLKSGTASVVCLLNNFYPREAKVQWKVDNALQSGNSQESVTEQDSKDSTYSLSSTLTLSKADYEKHKVYACEVTHQGLSSPVTKSFNRGEC | 2.84e+06 | 0.000116 | 3.01e+06 | 0.000162 | – | – | – | – | – | – | 405 | 302.9 | did not display aggregation behavior | prevented dexamethasone-induced weight loss | attenuated the loss of lean mass | reduced accumulation of circulating latent myostatin | –
4 | Ab105: anti-pro/latent myostatin antibody; CDRs in Tables 2d-f, variable domains Table 3, chains Table 4 (antibody) heavy: EVQLVESGGGLVQPGGSLRLSCAASGSAFSSYGMSWVRQAPGKGLELVASIGGTGATYYPDSVKGRFTISRDNAKNSLYLQMNSLRAEDTAVYYCARDLLVRFLEWGHYYGMDVWGQGTTVTVSSASTKGPSVFPLAPCSRSTSESTAALGCLVKDYFPEPVTVSWNSGALTSGVHTFPAVLQSSGLYSLSSVVTVPSSSLGTKTYTCNVDHKPSNTKVDKRV[human IgG4 Fc with S228P (EU numbers) left out] light: DIVMTQSPLSLPVTPGEPASISCRSSQSLLHSSGYNFLHWYLQKPGQSPQLLIYAASSRAPGIPDRFSGSGSGTDFTLKISRVEAEDVGVYYCMHGGQGPTFGGGTKVEIKRTVAAPSVFIFPPSDEQLKSGTASVVCLLNNFYPREAKVQWKVDNALQSGNSQESVTEQDSKDSTYSLSSTLTLSKADYEKHKVYACEVTHQGLSSPVTKSFNRGEC | 4.89e+06 | 0.000247 | 5.99e+06 | 0.000276 | 0.46 | – | – | – | – | maintained the body weight of the dexamethasone treated mice to a greater extent than Ab2 | 500 | 298.9 | did not display aggregation behavior | – | – | – | –

Reference: US12338279B2, “Selective and potent inhibitory antibodies of myostatin activation” (SCHOLAR ROCK, INC., priority 2022, dated 2025)
